Measurements published in PubChem BioAssay AID624417 (National Center for Advancing Translational Sciences (NCATS), 2012).
“And” between values parts separate entries of the source, which are not always exact repeats. Equal values may be shown once. The whole screen tested about 410,000 compounds, of which about 6,400 (1.6%) were called active. The shares of active, inactive and inconclusive entries below differ from those in the screen. The call rests on the fitted dose curve; in most records, active means well fitted inhibition curve with a large enough effect; inconclusive means small, poorly fitted or top-dose-only effect; inactive means no such curve, though single readings can be large or run the other way. Potencies beside an inconclusive call are fits to weak or partial responses and may not hold up.

target: Glucagon-like peptide 1 receptor (Homo sapiens) (UniProt P43220); assay: qHTS of GLP-1 Receptor Inverse Agonists (Inhibition Mode); details: HEK293 GLP-1R CRE-luciferase, luminescence, 24 h, GLP-1R form is constitutively active; activity change, negative = inhibition: at 38.3 µM (top of the series) unless noted; further: nearly all actives have a fitted effect of over 55% in size
UniProt P43220, sequence (P43220 whole entry, looked up): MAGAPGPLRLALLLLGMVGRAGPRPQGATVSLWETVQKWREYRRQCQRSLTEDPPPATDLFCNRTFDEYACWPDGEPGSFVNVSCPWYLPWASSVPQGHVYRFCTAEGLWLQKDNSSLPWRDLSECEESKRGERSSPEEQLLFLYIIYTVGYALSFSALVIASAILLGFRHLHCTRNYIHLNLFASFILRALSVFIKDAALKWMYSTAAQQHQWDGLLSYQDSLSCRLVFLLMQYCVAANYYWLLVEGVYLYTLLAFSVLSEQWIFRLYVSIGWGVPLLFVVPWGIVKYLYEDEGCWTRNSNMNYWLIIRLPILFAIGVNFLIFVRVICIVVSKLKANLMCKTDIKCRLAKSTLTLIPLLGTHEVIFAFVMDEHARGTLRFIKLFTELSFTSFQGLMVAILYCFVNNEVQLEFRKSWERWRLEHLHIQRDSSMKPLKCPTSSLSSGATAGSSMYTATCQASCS
Summary of the method: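 GLP-1R inverse agonism mode: basal reporter luminescence in engineered HEK293 cells measured after one day of compound exposure at 37 deg C, with a 12 min room-temperature detection step.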
On the % scale 0 is the no-effect control and ±100 the full control effect; potency means the concentration at half of the fitted maximal effect; tags describe the fitted curve by direction and shape.

| SMILES | Potency | activity change, negative = inhibition |
| --- | --- | --- |
| COc1cc(OC)cc(C(=O)O/N=C(\N)c2ccccn2)c1 | inconclusive: 14.1 µM [inhibitor, single point] | – |
| CC(C)(C)n1nnnc1C(c1cccs1)N(Cc1cccnc1)Cc1ccco1 (centres undefined) | inconclusive: 28.2 µM [inhibitor, single point] | – |
| O=C(Oc1ccc[nH]c1=O)c1ccc(F)cc1 | inconclusive: 11.2 µM [inhibitor, partial curve, poor fit] | – |
| O=C1Nc2cc(C(=O)NCCCN3CCOCC3)ccc2S/C1=C/c1ccccc1F | inconclusive: 12.6 µM [inhibitor, partial curve] | – |
| COc1ccc(OC)c(CN2CCN(C(=O)CNC(=O)c3ccc(C(C)(C)C)cc3)CC2)c1 | inconclusive: 11.2 µM [inhibitor, partial curve] | – |
| CCCCOC(=O)C1=C(C)NC(=O)NC1c1ccc([N+](=O)[O-])s1 (centres undefined) | inconclusive: 3.16 µM [inhibitor, partial curve, poor fit] | – |
| O=C1NC(=S)/C(=C\c2ccc(-c3ccccc3Cl)o2)S1 | inconclusive: 11.2 µM [inhibitor, partial curve, poor fit] | – |
| COc1ccccc1CNc1ncnc2c1cnn2-c1ccc(C)cc1 | inconclusive: 11.2 µM [inhibitor, single point] | – |
| O=C(Nc1ccccc1C(=O)N/N=C/c1ccco1)c1ccc(F)cc1 | – | inactive: 19.1% |
| O=[N+]([O-])c1ccc(Nc2ccc(Cl)cc2)nc1 | inconclusive: 11.2 µM [inhibitor, partial curve, poor fit] | – |
| COc1ccccc1C(=O)N1c2ccccc2Sc2ccccc21 | inconclusive: 11.2 µM [inhibitor, single point] | – |
| COc1cccc(N2CCN(C(=O)CN3CCSc4ccccc43)CC2)c1 | inconclusive: 2.82 µM [inhibitor, full curve] | – |
| Cc1[nH]c2ccccc2c1C(=O)CN1C(=O)NC(C)(c2ccc(Cl)cc2Cl)C1=O (centres undefined) | active: 12.6 µM | – |
| CCOC(=O)C1CCN(C(=O)COc2ccc(C(=O)c3ccccc3)cc2)CC1 | inconclusive: 28.2 µM [inhibitor, single point] | – |
| Fc1cccc(F)c1-n1c(CN2CCCCC2)csc1=S | inconclusive: 2.24 µM [inhibitor, partial curve, poor fit] | – |
| Cc1ccc(OCCNS(=O)(=O)c2ccc(Cl)cc2)cc1 | inconclusive: 10 µM [inhibitor, partial curve, poor fit] | – |
| O=C(COc1ccc(Br)cc1)Nc1ccc(-c2nnc(-c3ccco3)o2)cc1 | – | inactive: 0.796% |
| COC(=O)[C@@]1(Cc2ccccc2)[C@H]2C(=O)N(Cc3ccccc3)C(=O)[C@H]2[C@H]2CN=C(SCC(=O)c3ccccc3)N21 | inconclusive: 31.6 µM [inhibitor, single point] | – |
| CC(C)c1ccc(OCCCCCN2CCOCC2)cc1 | inconclusive: 12.6 µM [inhibitor, single point] | – |
| COc1ccc(OC)c(S(=O)(=O)NCC(c2cccs2)S(=O)(=O)c2ccc(F)cc2)c1 (centres undefined) | – | inactive: -18.2% |
| CCOC(=O)CCn1c(=O)c2c(nc(Br)n2Cc2ccccc2)n(C)c1=O | inconclusive: 12.6 µM [inhibitor, single point] | – |
| Cc1cc(F)ccc1NC(=O)C1CCC(CNS(=O)(=O)c2ccc3c(c2)CCCC(=O)N3)CC1 (centres undefined) | – | inactive: -9.12% |

| SMILES | Potency | activity change, negative = inhibition |
| --- | --- | --- |
| COc1ccc(NC(=O)C2Cc3cc(S(=O)(=O)N4CCCCC4)ccc3N2C(C)=O)cc1Cl (centres undefined) | active: 10 µM | – |
| CCOC(=O)c1ccc(NC(=O)CCc2nc(-c3ccccc3)no2)cc1 | inconclusive: 8.91 µM [inhibitor, partial curve, poor fit] | – |
| Cc1ccccc1NC(=O)c1sc2nc3c(cc2c1N)CN(Cc1ccccc1)CC3 | inconclusive: 7.08 µM [inhibitor, partial curve] | – |
| COc1ccc(NC(=O)C2(C)CCN2Cc2ccc3ccccc3c2)cc1OC (centres undefined) | inconclusive: 22.4 µM [inhibitor, single point] | – |
| CCOC(=O)Nc1sc2nc(C)cc(C)c2c1-n1cccc1 | inconclusive: 11.2 µM [inhibitor, partial curve, poor fit] | – |
| COC(=O)c1cc(NC(=O)C(C)c2ccc(CC(C)C)cc2)ccc1O (centres undefined) | inconclusive: 28.2 µM [inhibitor, partial curve, poor fit] | – |
| CCNc1nc(Oc2ccc(OC)cc2)cc(C(F)(F)F)n1 | inconclusive: 11.2 µM [inhibitor, partial curve, poor fit] | – |
| COc1ccc(Cn2c(C(=O)O)c(CNCc3ccc(SC)cc3)c3ccc(OC)cc32)cc1 | inconclusive: 28.2 µM [inhibitor, single point] | – |
| COc1ccc(C(C)(C)C)cc1NC(=O)CNc1cccc2ccccc12 | inconclusive: 3.16 µM [inhibitor, single point] | – |
| CCSC1=C(C#N)C2(CCCCC2)C2=C(CC(C)(C)CC2=O)N1 | inconclusive: 2.24 µM [inhibitor, full curve, poor fit] | – |
| Cc1cc(-c2nnc3n2N=C(c2ccccc2)CS3)n[nH]1 | – | inactive: 27.8% |
| COCCCNC(=S)N(CCO)Cc1cc2cc3c(cc2[nH]c1=O)OCO3 | – | inactive: 12.8% |
| COCCNc1ccc2cc(S(=O)(=O)N3CCCCC3)ccc2n1 | – | inactive: 6.96% |
| Cc1ccc2nc(NC(=O)CSc3nccn3Cc3ccc(F)cc3)sc2c1 | inconclusive: 12.6 µM [inhibitor, single point] | – |
| CCN(CC)S(=O)(=O)c1ccc(OC(C)C)c(NC(=O)c2c3c(nc4ccccc24)CCN(Cc2ccccc2)C3)c1 | inconclusive: 3.55 µM [inhibitor, partial curve] | – |
| Cc1cccc(/C=N/NC(=O)c2cccc(Cl)c2)n1 | inconclusive: 14.1 µM [inhibitor, single point] | – |
| CCn1c(=N)n(CC(=O)c2ccc(Cl)c(Cl)c2)c2ccccc21 | inconclusive: 28.2 µM [inhibitor, single point] | – |
| Cc1ccc2c(c1)c1c(c(=O)n(Cc3ccccc3)c(=O)n1CC(=O)Nc1ccccc1F)n2C | – | inactive: 9% |
| CCCCc1c(-c2ccccc2OC)ncn1Cc1cccc(-c2ccccc2)c1 | inconclusive: 28.2 µM [inhibitor, single point] | – |
| COc1ccccc1C(O)Cc1nc2ccccc2n1C (centres undefined) | – | inactive: -20.1% |
| O=C(CN1CCCN(S(=O)(=O)c2ccc(F)cc2)CC1)Nc1cccc(F)c1 | inconclusive: 11.2 µM [inhibitor, single point] | – |
| Cc1ccc(-c2cc(C(=O)Oc3ccc(C#N)cc3)no2)cc1C | – | inactive: 8.91% |

| SMILES | Potency | activity change, negative = inhibition |
| --- | --- | --- |
| S=C(N/N=C/c1ccc2ncccc2c1)Nc1cccnc1 | inconclusive: 10 µM [inhibitor, partial curve, poor fit] | – |
| CCc1ccc2nc(N(CCCN(C)C)C(=O)c3ccc(S(=O)(=O)N4CCc5ccccc5C4)cc3)sc2c1 | inconclusive: 22.4 µM [inhibitor, single point] | – |
| Cc1ccc(-c2nc3ccccc3o2)cc1NC(=O)Cc1ccc(Cl)cc1 | – | inactive: 1.78% |
| CC(=O)Nc1cc2nn(-c3ccccc3)nc2cc1C | inconclusive: 10 µM [inhibitor, single point] | – |
| Cc1ccc(S(=O)(=O)Oc2ccc(/C=C3\C(=N)N4N=C(S(C)(=O)=O)SC4=NC3=O)cc2)cc1 | – | inactive: 8.98% |
| Cc1cccc(-c2nc(CN3CCCC(C(=O)NCCc4ccc(Cl)cc4)C3)c(C)o2)c1 (centres undefined) | inconclusive: 11.2 µM [inhibitor, partial curve, poor fit] | – |
| CC(=O)N1CCc2cc(S(=O)(=O)CCC(=O)NCc3ccc(C)o3)ccc21 | – | inactive: 0.769% |
| CC1CCN(C(=O)COC(=O)c2cccs2)CC1 | inconclusive: 5.62 µM [inhibitor, full curve] | – |
| Cc1ccccc1CCNC(=O)c1ccc2c(c1)nc1n2CCCCC1 | inconclusive: 11.2 µM [inhibitor, partial curve, poor fit] | – |
| COc1ccc2cc3[n+](cc2c1OC)CCc1cc2c(cc1-3)OCO2 | inconclusive: 2.82 µM [inhibitor, full curve] and inconclusive: 2.24 µM [inhibitor, full curve] | – |
| CCOC(=O)C1C(=O)C=C(Nc2ccccc2F)CC1c1ccccc1 (centres undefined) | inconclusive: 22.4 µM [inhibitor, single point] | – |
| COc1cc(N2CCCC2)c(OC)cc1/C=C(/C#N)c1ccc(F)cc1 | inconclusive: 5.01 µM [inhibitor, partial curve, poor fit] | – |
| CCOC(=O)C1CCCN(Cc2ccc(OCc3ccccc3)c(OC)c2)C1 (centres undefined) | inconclusive: 10 µM [inhibitor, partial curve, poor fit] | – |
| Cc1ccc(OCc2nc(-c3ccccn3)no2)cc1 | inconclusive: 12.6 µM [inhibitor, single point] | – |
| COc1cc(C(=O)Nc2ccc(-c3nc4cc(C)ccc4o3)c(O)c2)cc(OC)c1OC | inconclusive: 4.47 µM [inhibitor, partial curve, poor fit] | – |
| O=C(c1ccncc1)N1CCN(C(=O)c2cccc3ccccc23)CC1 | – | inactive: 6.06% |
| CCC(C)CN1C(=O)CN(S(C)(=O)=O)CC1(C)C(=O)Nc1ccc2c(c1)OCCO2 (centres undefined) | – | inactive: 21.8% |
| CCOc1ccccc1CN1CCNC(=O)C1CC(=O)NCCC1=CCCCC1 (centres undefined) | inconclusive: 28.2 µM [inhibitor, single point] | – |
| OCCN1CCN(C2Cc3cc(Cl)ccc3Sc3ccc(Cl)cc32)CC1 (centres undefined) (tested in a mixture with another compound) | inconclusive: 12.6 µM [inhibitor, partial curve, poor fit] | – |
| Cc1ccc(C)c(C2=NNC(=NCc3ccccc3)SC2)c1 | inconclusive: 11.2 µM [inhibitor, single point] | – |
